Assay results reported in PubChem BioAssay AID686979 (National Center for Advancing Translational Sciences (NCATS), 2013).
Values joined by “and” are separate entries in the source; they are usually repeats but may differ in a detail not shown here. Equal values may be shown once. In all, about 420,000 compounds went through this assay and about 50,000 (12%) were called active. The inconclusive results got no clear call from the source; some entries with a clear call stand among them for comparison. Calls follow the shape of the dose curve; as a rule, active = well fitted inhibition curve with a large enough effect; inconclusive = small, poorly fitted or top-dose-only effect; inactive = flat fitted curve, though single readings scatter. Potencies of inconclusive entries are doubtful fits and often do not repeat.
% is scaled to controls: 0 for no effect and ±100 for the full control effect; potency is read from the fitted curve at half-maximal effect; tags tell the direction and shape of the fitted curve.

Test: qHTS for Inhibitors of human tyrosyl-DNA phosphodiesterase 1 (TDP1): qHTS in cells in presence of CPT; also: nearly all actives have a fitted effect of over 55% in size
Conditions: chicken DT40 Tdp1-/-;hTDP1 cells + 20 nM CPT, ATP luminescence, 48 h; activity change, negative = growth inhibition: at 46.2 µM (top of the series) unless noted
Summary of the method: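 Chicken DT40 Tdp1-/- cells stably complemented with human TDP1 were seeded at 400 cells/well in medium containing 20 nM camptothecin, exposed to pin-transferred compounds, and grown at 37 °C for at least 48 hr. Viability was read as ATP luminescence.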
With `C=CCN1C(=O)c2ccccc2Sc2ccc(C(=O)NCCC)cc21` the Potency was inconclusive: 23.1 µM [inhibitor, single point]. In the case of `Cc1cc(OCCn2c(C3CC(=O)N(Cc4ccc(F)cc4)C3)nc3ccccc32)ccc1Cl` (stereo not drawn), the Potency is reported as inconclusive: 29.1 µM [inhibitor, single point]. With `CC(C)=CCc1c([C@@H]2CCc3ccc(O)cc3O2)cc2c(c1O)OC(C)(C)C=C2` the Potency was inconclusive: 25.9 µM [inhibitor, single point]. In the case of `O=C(CCN1CCOCC1)NNC(=O)c1ccc([N+](=O)[O-])cc1[N+](=O)[O-]`, the Potency is reported as inconclusive: 29.1 µM [inhibitor, single point]. In the case of `COc1cc2[nH]c(=O)n(CCCC(=O)NCc3ccccc3Cl)c(=O)c2cc1OC`, the Potency is reported as inconclusive: 20.6 µM [inhibitor, partial curve]. With `CCCn1cc(S(=O)(=O)c2cccc(Cl)c2)c(=O)c2cc(F)c(N3CCN(CC)CC3)cc21` the Potency was inconclusive: 25.9 µM [inhibitor, single point]. In the case of `CC1CN(CC(=O)NN=C(c2ccccc2)c2ccccc2)CC(C)O1` (stereo not drawn), the Potency is reported as inconclusive: 25.9 µM [inhibitor, partial curve]. For `Cc1cc(O)c(C(C)C)cc1N=Cc1cc([N+](=O)[O-])ccc1O`, the Potency was active: 23.1 µM. With `O=C(CSc1nc2c(c(=O)[nH]1)CCCC2)Nc1cccc(O)c1` the “activity change, negative = growth inhibition” value was inactive: -24.6%. For `CCC(=Nc1ccccc1OC)C1=C(O)CC(c2ccccc2)CC1=O` (stereo not drawn), the Potency was active: 6.51 µM. For `O=C(CN1C(=O)c2cccc3cccc1c23)NCc1ccccn1`, the Potency was inconclusive: 20.6 µM [inhibitor, single point]. In the case of `CC/C(O)=C(/C#N)c1nnc2n1CCCCC2`, the “activity change, negative = growth inhibition” value is reported as inactive: -18.2%. With `CCOC(=O)Cc1csc(NC(=O)Cc2ccccc2)n1` the “activity change, negative = growth inhibition” value was inactive: 21.8%. In the case of `O=C1OC(c2ccc(O)cc2)(c2ccc(O)cc2)c2ccccc21`, the Potency is reported as “inactive and inconclusive: 33.5 µM [inhibitor, single point]”. With `Cc1ccc(-c2cc(Cc3ccc(F)cc3)c(=O)[nH]n2)cc1` the Potency was inconclusive: 29.1 µM [inhibitor, single point]. For `COc1ccc(CNC(=O)c2c(N)n(CCCN3CCOCC3)c3nc4ccccc4nc23)cc1`, the Potency was inconclusive: 29.1 µM [inhibitor, single point]. In the case of `CC(=O)NC(=O)NC1OC(=O)C(Cl)=C1Cl` (stereo not drawn), the Potency is reported as inconclusive: 29.1 µM [inhibitor, single point]. In the case of `O=C(CN1C(=O)NC2(CCCC2)C1=O)NNC(=O)c1ccc(F)cc1`, the “activity change, negative = growth inhibition” value is reported as inactive: 7.18%. For `O=C(O)c1cc2ccc3ccccc3c2[nH]1`, the “activity change, negative = growth inhibition” value was inactive: -29%. With `O=C(NC1CCCC1)C1C(c2ccc(C(F)(F)F)cc2)=Nc2ccccc2N1C(=O)c1cc2ccccc2[nH]1` (stereo not drawn) the Potency was inconclusive: 18.4 µM [inhibitor, single point]. For `O=C(c1ccccc1)N1CCOC(O)(c2ccccc2)C1c1ccccc1` (stereo not drawn), the Potency was inconclusive: 0.82 µM [inhibitor, full curve, poor fit]. With `COc1cc(C(=O)O/N=C(\N)c2ccc([N+](=O)[O-])cc2)cc(OC)c1OC` the Potency was inconclusive: 29.1 µM [inhibitor, single point]. In the case of `COc1cccc(CN(C)CC(O)COc2cc(Cl)ccc2Cl)c1` (stereo not drawn), the Potency is reported as inconclusive: 29.1 µM [inhibitor, single point]. In the case of `C=C1CCN([C@@H](Cc2ccccc2)C(=O)NCCC(C)C)S(=O)(=O)c2ccccc21`, the “activity change, negative = growth inhibition” value is reported as inactive: -9.84%. With `CS(=O)(=O)c1ccc2nc(NC3(C(F)(F)F)N=C4SCCN4C3=O)sc2c1` (stereo not drawn) the Potency was inconclusive: 2.91 µM [inhibitor, partial curve]. With `O=C1N(Cc2ccccc2)c2ccc(Cl)cc2C12OCCO2` the “activity change, negative = growth inhibition” value was inactive: -7.5%. In the case of `CCOc1ccccc1C(=O)OCC(=O)NCc1ccc2c(c1)OCO2`, the “activity change, negative = growth inhibition” value is reported as inactive: 2.49%. In the case of `COc1ccc(NC(=O)c2cc3ccccc3cc2O)cc1`, the Potency is reported as inconclusive: 23.1 µM [inhibitor, single point]. With `COc1ccc(S(=O)(=O)N2Cc3ccccc3CC2C(=O)Nc2cccc(C)c2)cc1OC` (stereo not drawn) the Potency was inconclusive: 29.1 µM [inhibitor, single point]. In the case of `COc1ccc(NC(=O)/C(C#N)=C/c2c(C)nn(-c3ccc(F)cc3)c2Cl)cc1OC`, the Potency is reported as inconclusive: 29.1 µM [inhibitor, single point]. In the case of `CCCCCCCCC#Cc1nc(C)ccc1OC`, the Potency is reported as inconclusive: 29.1 µM [inhibitor, single point]. For `COc1cc(OC)nc(-n2ncc(OC)c(Br)c2=O)n1`, the Potency was inconclusive: 29.1 µM [inhibitor, single point]. In the case of `CC1(C)CC(=O)c2sc(NS(=O)(=O)c3ccc(F)cc3)nc2C1`, the “activity change, negative = growth inhibition” value is reported as inactive: -0.224%. For `COc1ccccc1CNc1nc(-c2ccco2)nn1C(=O)c1ccccc1[N+](=O)[O-]`, the Potency was inconclusive: 25.9 µM [inhibitor, single point]. In the case of `CCOc1ccc(NS(=O)(=O)c2ccc3[nH]c(=O)oc3c2)cc1`, the “activity change, negative = growth inhibition” value is reported as inactive: 2.88%. In the case of `CCc1ccc(NC(=O)c2ccc(Cn3cc([N+](=O)[O-])cn3)cc2)cc1`, the Potency is reported as inconclusive: 20.6 µM [inhibitor, single point]. For `COc1cccc(NC(=S)NNC(=O)c2ccccc2OC(F)F)c1`, the Potency was inconclusive: 29.1 µM [inhibitor, single point]. For `O=C(N/C(=C\c1ccc(Br)cc1)C(=O)N1CCOCC1)c1ccc([N+](=O)[O-])cc1`, the “activity change, negative = growth inhibition” value was inactive: -6.37%. For `CN(Cc1ccccc1)C(=O)c1ccc(NC2=NC3CS(=O)(=O)CC3S2)cc1` (stereo not drawn), the “activity change, negative = growth inhibition” value was inactive: 2.81%. For `Cc1cc(=O)n2c(C(=O)Nc3ccc(C)c(C)c3)c(C(=O)Nc3ccccc3)sc2n1`, the Potency was inconclusive: 25.9 µM [inhibitor, single point] and inconclusive: 29.1 µM [inhibitor, single point]. For `COc1ccccc1C1CC(c2ccc(C)cc2)Nc2ncnn21` (stereo not drawn), the Potency was inconclusive: 14.6 µM [inhibitor, partial curve, poor fit]. In the case of `CCCc1cc(C(=O)N2CCCC(N3CCN(c4ccccc4F)CC3)C2)n(C)n1` (stereo not drawn), the Potency is reported as inconclusive: 20.6 µM [inhibitor, single point]. For `CCc1cc(-c2nc(N)ncc2-c2ccc(Br)cc2)c(O)cc1OC`, the Potency was inconclusive: 25.9 µM [inhibitor, single point].
